Measurements published in publication PMC4337420.
Results are given in words; binding and its absence hold for the method and conditions named. Binding seen in cells or lysates may run through a third protein. Some entries that bind do so weakly or less than the wild type. For some assays here: Where a sequence is shown, tags or fusion partners need not be part of it.

The chains behind the UniProt entries cited, without tags or fusion partners. Where a name states a change or a piece, a line headed by the entry shows the natural chain unless it says otherwise. A line that says so, or that is headed by a name, gives the form on record, which may keep a tag or linker.
UniProt Q95V55: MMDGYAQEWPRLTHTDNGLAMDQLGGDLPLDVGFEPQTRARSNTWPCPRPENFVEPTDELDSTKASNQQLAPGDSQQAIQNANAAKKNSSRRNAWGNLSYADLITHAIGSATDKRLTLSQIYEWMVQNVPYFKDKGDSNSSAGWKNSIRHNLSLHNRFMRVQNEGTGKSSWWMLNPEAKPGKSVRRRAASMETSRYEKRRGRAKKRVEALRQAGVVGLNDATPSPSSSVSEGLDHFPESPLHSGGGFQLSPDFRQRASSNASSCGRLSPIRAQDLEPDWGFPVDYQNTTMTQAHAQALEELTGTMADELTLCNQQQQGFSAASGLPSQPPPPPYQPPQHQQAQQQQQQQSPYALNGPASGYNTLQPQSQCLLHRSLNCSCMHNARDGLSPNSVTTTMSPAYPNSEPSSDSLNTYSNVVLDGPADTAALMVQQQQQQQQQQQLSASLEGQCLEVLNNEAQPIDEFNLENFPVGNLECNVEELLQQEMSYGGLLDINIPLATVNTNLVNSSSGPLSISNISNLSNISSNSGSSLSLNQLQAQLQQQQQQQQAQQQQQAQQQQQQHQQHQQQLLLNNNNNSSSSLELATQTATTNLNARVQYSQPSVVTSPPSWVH
GST-tagged full length FoxO with K204 mutated to alanine (Q95V55-1, form named): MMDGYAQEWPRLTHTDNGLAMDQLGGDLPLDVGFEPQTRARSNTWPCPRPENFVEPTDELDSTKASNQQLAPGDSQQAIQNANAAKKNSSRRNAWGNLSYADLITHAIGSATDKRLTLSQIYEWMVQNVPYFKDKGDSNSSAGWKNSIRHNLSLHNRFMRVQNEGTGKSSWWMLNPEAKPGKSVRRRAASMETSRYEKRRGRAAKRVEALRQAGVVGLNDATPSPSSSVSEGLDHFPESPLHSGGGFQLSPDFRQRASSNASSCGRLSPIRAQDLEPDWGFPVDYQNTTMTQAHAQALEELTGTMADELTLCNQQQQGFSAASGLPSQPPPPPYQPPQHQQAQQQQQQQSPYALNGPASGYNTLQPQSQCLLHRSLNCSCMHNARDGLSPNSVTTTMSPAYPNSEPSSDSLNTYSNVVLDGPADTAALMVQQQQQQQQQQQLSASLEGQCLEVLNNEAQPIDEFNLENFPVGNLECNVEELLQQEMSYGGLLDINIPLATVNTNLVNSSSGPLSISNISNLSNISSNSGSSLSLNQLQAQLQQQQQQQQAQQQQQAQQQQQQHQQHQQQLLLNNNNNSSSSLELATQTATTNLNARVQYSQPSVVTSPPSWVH
GST-tagged full length FoxO with N175 mutated to alanine (Q95V55-1, form named): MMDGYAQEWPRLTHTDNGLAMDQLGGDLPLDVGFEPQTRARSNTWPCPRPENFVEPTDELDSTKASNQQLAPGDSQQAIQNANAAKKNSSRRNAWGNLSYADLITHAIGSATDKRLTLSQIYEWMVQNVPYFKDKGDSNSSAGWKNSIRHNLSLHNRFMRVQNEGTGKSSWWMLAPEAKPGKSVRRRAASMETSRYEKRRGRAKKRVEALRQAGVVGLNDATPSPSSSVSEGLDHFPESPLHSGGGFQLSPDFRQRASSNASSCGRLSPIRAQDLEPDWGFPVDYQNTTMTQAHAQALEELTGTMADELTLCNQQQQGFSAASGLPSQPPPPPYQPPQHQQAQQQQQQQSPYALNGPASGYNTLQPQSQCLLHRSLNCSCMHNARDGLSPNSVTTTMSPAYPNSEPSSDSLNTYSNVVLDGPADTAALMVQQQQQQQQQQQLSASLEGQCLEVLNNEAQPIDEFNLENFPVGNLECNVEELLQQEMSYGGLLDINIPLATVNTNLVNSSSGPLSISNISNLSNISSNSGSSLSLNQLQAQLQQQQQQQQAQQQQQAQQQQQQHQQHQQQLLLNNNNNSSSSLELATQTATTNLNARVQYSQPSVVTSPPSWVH
GST-tagged full length FoxO with R202 mutated to alanine (Q95V55-1, form named): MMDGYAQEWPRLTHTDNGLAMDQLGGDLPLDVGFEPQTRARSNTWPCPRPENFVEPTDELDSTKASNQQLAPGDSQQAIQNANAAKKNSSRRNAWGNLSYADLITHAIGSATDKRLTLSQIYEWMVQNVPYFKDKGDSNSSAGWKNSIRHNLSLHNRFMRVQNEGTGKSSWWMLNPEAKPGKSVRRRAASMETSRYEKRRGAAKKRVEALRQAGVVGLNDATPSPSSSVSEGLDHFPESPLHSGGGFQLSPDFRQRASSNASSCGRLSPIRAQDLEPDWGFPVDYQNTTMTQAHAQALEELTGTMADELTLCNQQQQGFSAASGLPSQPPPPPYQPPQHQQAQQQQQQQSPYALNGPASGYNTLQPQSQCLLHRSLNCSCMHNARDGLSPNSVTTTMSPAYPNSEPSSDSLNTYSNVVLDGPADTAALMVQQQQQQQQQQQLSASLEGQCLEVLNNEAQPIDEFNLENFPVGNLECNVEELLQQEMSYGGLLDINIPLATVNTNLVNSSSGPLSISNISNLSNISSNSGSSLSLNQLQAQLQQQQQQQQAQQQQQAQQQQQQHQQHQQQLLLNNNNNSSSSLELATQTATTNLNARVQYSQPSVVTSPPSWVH
GST-tagged full length FoxO with W172 mutated to alanine (Q95V55-1, form named): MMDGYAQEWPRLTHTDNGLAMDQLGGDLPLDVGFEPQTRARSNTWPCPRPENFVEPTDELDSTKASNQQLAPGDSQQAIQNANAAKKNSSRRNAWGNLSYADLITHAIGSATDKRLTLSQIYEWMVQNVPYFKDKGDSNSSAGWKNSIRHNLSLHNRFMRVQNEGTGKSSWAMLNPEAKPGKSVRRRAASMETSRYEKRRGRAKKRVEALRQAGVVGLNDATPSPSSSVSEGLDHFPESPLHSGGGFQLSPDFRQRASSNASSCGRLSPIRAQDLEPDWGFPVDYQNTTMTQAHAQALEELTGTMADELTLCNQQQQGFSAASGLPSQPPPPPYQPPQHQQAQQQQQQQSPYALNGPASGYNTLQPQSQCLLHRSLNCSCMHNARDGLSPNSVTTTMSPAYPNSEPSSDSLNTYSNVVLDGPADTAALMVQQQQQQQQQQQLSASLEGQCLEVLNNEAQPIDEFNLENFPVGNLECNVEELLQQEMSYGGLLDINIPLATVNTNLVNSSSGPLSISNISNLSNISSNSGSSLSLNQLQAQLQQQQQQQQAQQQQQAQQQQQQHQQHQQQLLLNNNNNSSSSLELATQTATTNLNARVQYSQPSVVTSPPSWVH

T1: Ultraspiracle (Usp), endogenous in larvae (Drosophila melanogaster (endogenous in w[1118] larvae)) (UniProt P20153)
T1 sequence: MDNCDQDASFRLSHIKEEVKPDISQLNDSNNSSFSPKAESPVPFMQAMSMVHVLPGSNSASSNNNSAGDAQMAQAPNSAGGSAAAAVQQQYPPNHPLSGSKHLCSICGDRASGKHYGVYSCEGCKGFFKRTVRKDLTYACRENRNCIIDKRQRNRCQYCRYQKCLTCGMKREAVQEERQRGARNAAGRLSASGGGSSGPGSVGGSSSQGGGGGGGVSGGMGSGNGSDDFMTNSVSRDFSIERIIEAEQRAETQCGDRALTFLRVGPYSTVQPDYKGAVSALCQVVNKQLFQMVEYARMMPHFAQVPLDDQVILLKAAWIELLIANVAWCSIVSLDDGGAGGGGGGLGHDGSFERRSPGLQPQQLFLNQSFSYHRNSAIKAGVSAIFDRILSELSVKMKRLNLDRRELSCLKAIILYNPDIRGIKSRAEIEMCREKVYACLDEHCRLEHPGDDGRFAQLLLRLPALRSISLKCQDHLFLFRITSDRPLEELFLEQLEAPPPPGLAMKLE

T2: Ecdysone Receptor (EcR), endogenous in larvae (Drosophila melanogaster (endogenous in w[1118] larvae)) (UniProt P34021)
T2 sequence: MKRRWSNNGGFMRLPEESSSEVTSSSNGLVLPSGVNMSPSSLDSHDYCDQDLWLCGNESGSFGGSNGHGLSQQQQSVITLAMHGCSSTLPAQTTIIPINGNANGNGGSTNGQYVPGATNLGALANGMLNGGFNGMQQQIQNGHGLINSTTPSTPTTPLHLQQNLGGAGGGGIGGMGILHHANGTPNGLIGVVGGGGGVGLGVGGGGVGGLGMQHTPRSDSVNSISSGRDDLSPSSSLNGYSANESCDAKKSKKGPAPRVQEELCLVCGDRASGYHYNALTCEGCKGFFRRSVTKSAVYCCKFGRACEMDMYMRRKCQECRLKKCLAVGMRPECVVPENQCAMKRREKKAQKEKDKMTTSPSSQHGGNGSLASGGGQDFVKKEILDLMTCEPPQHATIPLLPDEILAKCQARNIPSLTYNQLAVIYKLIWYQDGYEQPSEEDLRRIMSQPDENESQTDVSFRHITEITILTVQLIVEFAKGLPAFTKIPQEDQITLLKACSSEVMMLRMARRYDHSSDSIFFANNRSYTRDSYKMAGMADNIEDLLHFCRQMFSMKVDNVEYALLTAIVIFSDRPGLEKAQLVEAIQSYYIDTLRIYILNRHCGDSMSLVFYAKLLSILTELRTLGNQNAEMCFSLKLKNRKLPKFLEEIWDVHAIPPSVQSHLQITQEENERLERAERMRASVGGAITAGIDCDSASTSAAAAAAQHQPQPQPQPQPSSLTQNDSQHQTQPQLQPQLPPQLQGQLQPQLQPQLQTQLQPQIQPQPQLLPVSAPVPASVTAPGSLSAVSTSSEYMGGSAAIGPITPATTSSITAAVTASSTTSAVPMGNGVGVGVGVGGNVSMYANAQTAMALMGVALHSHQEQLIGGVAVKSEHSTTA

B1: Flag-tagged Ultraspiracle (Usp), full length (protein, UniProt P20153 1-508)
chain: T1 sequence
B2: Ecdysone Receptor (EcR), endogenous in larvae (protein, UniProt P34021 1-878)
chain: T2 sequence
B3: Flag-tagged Ecdysone Receptor isoform A (EcR-A), full length (protein, UniProt P34021-2 1-849)
chain: MLTTSGQQQSKQKLSTLPSHILLQQQLAASAGPSSSVSLSPSSSAALTLHVASANGGARETTSAAAVKDKLRPTPTAIKIEPMPDVISVGTVAGGSSVATVVAPAATTTSNKPNSTAAPSTSAAAANGHLVLVPNKRPRLDVTEDWMSTPSPGSVPSSAPPLSPSPGSQNHSYNMSNGYASPMSAGSYDPYSPTGKTGRDDLSPSSSLNGYSANESCDAKKSKKGPAPRVQEELCLVCGDRASGYHYNALTCEGCKGFFRRSVTKSAVYCCKFGRACEMDMYMRRKCQECRLKKCLAVGMRPECVVPENQCAMKRREKKAQKEKDKMTTSPSSQHGGNGSLASGGGQDFVKKEILDLMTCEPPQHATIPLLPDEILAKCQARNIPSLTYNQLAVIYKLIWYQDGYEQPSEEDLRRIMSQPDENESQTDVSFRHITEITILTVQLIVEFAKGLPAFTKIPQEDQITLLKACSSEVMMLRMARRYDHSSDSIFFANNRSYTRDSYKMAGMADNIEDLLHFCRQMFSMKVDNVEYALLTAIVIFSDRPGLEKAQLVEAIQSYYIDTLRIYILNRHCGDSMSLVFYAKLLSILTELRTLGNQNAEMCFSLKLKNRKLPKFLEEIWDVHAIPPSVQSHLQITQEENERLERAERMRASVGGAITAGIDCDSASTSAAAAAAQHQPQPQPQPQPSSLTQNDSQHQTQPQLQPQLPPQLQGQLQPQLQPQLQTQLQPQIQPQPQLLPVSAPVPASVTAPGSLSAVSTSSEYMGGSAAIGPITPATTSSITAAVTASSTTSAVPMGNGVGVGVGVGGNVSMYANAQTAMALMGVALHSHQEQLIGGVAVKSEHSTTA
B4: Flag-tagged Ecdysone Receptor isoform B1 (EcR-B1), full length (protein, UniProt P34021-1 1-878)
chain: T2 sequence

Assays:
[1] = target: T1, Ultraspiracle (Usp), endogenous in larvae (Drosophila melanogaster (endogenous in w[1118] larvae)); assay: condition: only well-fed post-critical weight larvae; co-IP; as a3, but extract of well-fed post-critical weight larvae (fed on standard fly medium for additional 24 hr); precipitation with anti-Usp (AB11)
[2] = target: T2, Ecdysone Receptor (EcR), endogenous in larvae (Drosophila melanogaster (endogenous in w[1118] larvae)); assay: co-IP; 500 µg protein extract of anterior halves (without fat body and salivary glands) of w[1118] larvae, pre-critical weight (0–5 hr AL3E) or protein-starved 24 hr on 20% sucrose; precipitation with anti-Usp (AB11) or anti-EcR (DDA2.7); blots for FoxO, Usp, EcR
[3] = target: T1, Ultraspiracle (Usp), endogenous in larvae (Drosophila melanogaster (endogenous in w[1118] larvae)); assay: as above
[4] = target: GST-tagged Forkhead Box class O (FoxO), full length (Drosophila melanogaster) (UniProt Q95V55); assay: pull-down; GST-pulldown as a1, in the presence of 20E (20-hydroxyecdysone)
[5] = target: GST-tagged Forkhead Box class O (FoxO), full length (Drosophila melanogaster) (UniProt Q95V55); assay: pull-down; GST-pulldown in vitro: GST-tagged FoxO (full length, fragments or point mutants) purified on Glutathione Sepharose 4B as bait; Flag-tagged Usp or EcR detected with anti-Flag M2; source of the Flag-tagged proteins not told
[6] = target: GST-tagged full length FoxO with K204 mutated to alanine (Drosophila melanogaster) (UniProt Q95V55); assay: as above
[7] = target: GST-tagged full length FoxO with N175 mutated to alanine (Drosophila melanogaster) (UniProt Q95V55); assay: as above
[8] = target: GST-tagged full length FoxO with R202 mutated to alanine (Drosophila melanogaster) (UniProt Q95V55); assay: as above
[9] = target: GST-tagged full length FoxO with W172 mutated to alanine (Drosophila melanogaster) (UniProt Q95V55); assay: as above

Molecule | binding [3] | binding [4] | binding [5] | also measured
Forkhead Box class O (FoxO), endogenous in larvae (from UniProt Q95V55-1 1-613) | binds |  |  | binding [1]: no binding; binding [2]: no binding
B1 |  | binds | binds | binding [6]: binds; binding [7]: binds; binding [8]: binds; binding [9]: binds
B2 | binds |  |  | 
B3 |  | no binding | no binding | 
B4 |  | no binding | no binding | 
